# Assay results reported in the supplement of paper PMC11417369.
# The other results are listed elsewhere or left out.
# Test system: PF3D7_0420300 AP2 domain 1 (GST-tagged)
# Experiment: gcPBM binding intensity (ln(normalized median fluorescence intensity)); higher = stronger DNA binding
# Outline: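 GST-fused DNA-binding domains of P. falciparum, expressed in E. coli, were applied at about 25 μg on average for 1 h to an Agilent 4 × 180k array of primer-extended double-stranded 36-bp intergenic genomic probes and negative controls. Binding intensity is the highest Masliner-normalised natural-log median intensity across replicate spots of either probe orientation, measured with Alexa488 anti-GST antibody and a 488 nm scan.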
row,Sequence,gcPBM binding intensity (ln)
1,AAAAAAAAAAAAATGTGGACACAATTGTGTGTTTGT [XGTACX_site3563],9.7
2,TTTTTGTTAAAATAAATATTATAAATATATTAATAT [TGCATGCA_negctrl_site239],8.77
3,TACATATTTTATAGCACACAAATAATAATATGTAGT [CACACA_site688],9.35
4,GTTGTGGAAAGAAGTTGTACATAAAATATTATATAA [XGTACX_site4352],9.06
5,AGGCCTTTTAGTATTTCACACACGTAAATGCGTATA [CACACA_site1108],9.29
6,CATAAAAATGAACATACACACATATATATATATATA [CACACA_site2498],9.47
7,TTGCTTTCTTTTTTTTGTACTCATATCTACTATCAT [XGTACX_site7711],9.65
8,CGAGCAAGACGGGGTGCACACAAACTAATATGCCGA [CACACA_site7936],9.48
9,TACCTTTATTAATAAAGTACATTAATCTGTGTATAC [XGTACX_site8720],9.09
10,ATTATTATGTAGAAGGTGCTATGTTCTATAAATATA [GTGCAC_site9545],9.21
11,CTATGAACACACACATGTACATATATTAACTCGCTA [XGTACX_site8805],9.61
12,CCACTTGTGTAATGTTGTACAAAAATAAATATATTT [XGTACX_site4598],9.05
13,ATAATTAAAAATAATATATATATAATATGATATTAT [GTGCAC_negctrl_site194],9.03
14,TACACATACAGACATACACACATACACATATACACA [CACACA_site6918],9.88
15,AAAAAAAAAAAAAACACACACACACGCACATATACA [CACACA_site7288],10.2
16,TTTTTTCTTTTTTTTTTTAATTATAAACATGATATT [GTGCAC_negctrl_site144],9.06
17,TAAATATATATAACATGTACATAAAATATATATATA [XGTACX_site4431],9.26
18,TATCTTCATTGTTGACGTACAGTATTTCTAAACGTT [XGTACX_site3439],9.26
19,AATATAAATAAAAAATTGATTTCTTTAAAAAGGTAT [CACACA_negctrl_site1038],9.12

row,Sequence,gcPBM binding intensity (ln)
1,TTGTTCTTTCAAATTATACACACCAAAAAAAAAAAA [CACACA_site3070],9.14
2,TACAAATGAGAAATATGTACATAAAAAAAAAAAAAT [XGTACX_site801],9.52
3,TAATCATAAAAAAATACACACATATATAATATATAT [CACACA_site1983],9.58
4,ATACAAAATCTAATTTGTACACAATGTTTGATTTTT [XGTACX_site5438],9.23
5,TATCCATATTTGTTCACACACACACCCATTTATATA [CACACA_site3571],10.2
6,ATTTTTATGTTGAAAAGTACTTGAATCCCATGTAAC [XGTACX_site4453],9.09
7,TATTTATTTATTTAGTGTACATTTATATTTGTTCAT [XGTACX_site7575],9.42
8,TTCTTTTTTTTTAAAACAAACAAACAAACAAACAAA [CACACA_negctrl_site832],8.89
9,TTAATCTTTCCTACATGTACACACAGAAAAAAAAAA [XGTACX_site5213],9.25
10,TTTTTATTAAATAAAGCACACACAACAACTTTTCAC [CACACA_site9372],9.72
11,AAATATAAAAAAAAAAGTACTTTGTTACTTTTCTAT [XGTACX_site6034],8.84
12,AAAATAAATATAACCACACACGAAAGAGAGAGAAAA [CACACA_site3272],10
13,TAACCATAAGAAGATTGTACATAATAAAAGTATTCT [XGTACX_site1117],9.4
14,AACTGCAAAAAAAGACGTACAAATTATTAATTGCAA [XGTACX_site8929],9.24
15,ATTTAAAATGGTTATACACACATAAAAGGGGAAATG [CACACA_site2649],9.67
16,ATATATATATATATATGTACATACCCAATTGTGTAA [XGTACX_site6352],9.58
17,TACAGACATACATACACACATACATATATATATATA [CACACA_site1940],9.67
18,ATATAACATGGACACACACACATATATATATATTAT [CACACA_site6135],10.1
19,ATACAAATTAAGCCTCAAGTTCTTTTTTTTAACATA [XGTACX_negctrl_site580],9.07

row,Sequence,gcPBM binding intensity (ln)
1,AAAAAAAAGAATTATTGTACAAAAGAACAATAAATA [XGTACX_site1368],9.12
2,GTGAAATTATATTTTTGTACATATATTATATATTAT [XGTACX_site3387],9.37
3,GGTGCACCCATATACACACACAAATACAATGATAAA [CACACA_site1132],9.87
4,GTATATATCTAAAAATATATATATATATATATATAT [CACACA_negctrl_site788],8.93
5,ATCGAAGGGGTACAAAATAAAAATAATTCTTTCAAA [TGCATGCA_negctrl_site373],9.02
6,AAGTGTTATGAAATATGTACACATATATTATATATA [XGTACX_site6022],9.3
7,TATAAATAAATATGGAGTACCAAAAAAATTATAAAA [XGTACX_site7581],9.25
8,TTTTTTATTAAAAGCGAAAAAAATGAAAACTTTTTT [GTGCAC_negctrl_site605],8.77
9,TTTTTAATTAACTTTGTAAACTTATATATATATATA [TGCATGCA_negctrl_site311],9.13
10,AAGGAATATTAAGTGGGTACTAAAAAAAAATTAATT [XGTACX_site331],9.17
11,TTAAAGCACCCATGCACACACACAAGGGAAAAGAAA [CACACA_site4289],9.9
12,GAAGTAGATGGAAAAGTGCACTGTAATGGTTATATT,9.31
13,TGTATATAGAAACATACACACATATTAATTTTACAT [CACACA_site3126],9.54
14,ATGTAAATGTTATTATGTACATATTTATTCTTCAAA [XGTACX_site7377],9.15
15,TTAAGTCATAAATAAAGTACATAAATATAATATATA [XGTACX_site6304],9.17
16,TCCAATTAAATATATGAACACACATGTGAACTTTCT [CACACA_site9318],9.29
17,GGGGGTAGGGGAAGAAGTACAATGATCACTACAGTA [XGTACX_site1169],9.57
18,GTATATATATTTGTACGTACATATTGTTGTAAACAC [XGTACX_site8833],9.45
